Data on 32 compounds can be found in the supplement of paper PMC10037445.

Whole data set: some 2,900 compounds, median “NF-kB SEAP reporter activity, fold change vs agonist alone” near 0.99, cut for the highest 2% near 2.6. Some of the results follow.

In assay [1] the test system is RAW-Dual. The assay can be described thus: NF-kB SEAP reporter activity, fold change vs agonist alone; cytotoxicity flag (confluency mask): not cytotoxic; higher = enhanced NF-kB activity. In a few lines: (§1)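 RAW-Dual macrophages were seeded in DMEM at 50,000 cells/well in 384-well plates, given 50 nL of library stock by pin tool, and given a PRR agonist 1 h later. Plates were held at 37 °C, 5% CO2 for 20 hours, after which supernatant was read for IRF by QuantiLuc luminescence and for NF-κB by QuantiBlue absorbance at 620 nm. Reporter activity is expressed as fold change over wells that received agonist alone. A well was called cytotoxic when IncuCyte confluency fell below 70% of agonist controls in both mask sets.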

Assay [2] concerns RAW-Dual. Description: NF-kB SEAP reporter activity, fold change vs agonist alone; higher = enhanced NF-kB activity. In a few lines: as §1
The test system of assay [3] is RAW-Dual. The assay can be described thus: NF-kB SEAP reporter activity, fold change vs agonist alone; cytotoxicity flag (confluency mask): cytotoxic (confluency <70% of control); higher = enhanced NF-kB activity. Put shortly: as §1
[4] abbreviates: agonist: ODN 1826 (TLR9) 0.5 ug/mL.
[5] abbreviates: agonist: Pam2CSK4 (TLR2/6) 0.1 ug/mL.
Setting [6] is: agonist: Pam3CSK4 (TLR2/1) 0.1 ug/mL.
Where [7] appears, read: library stock concentration (final ~1000-fold dilution): 10 mM, cytotoxicity flag (confluency mask): not cytotoxic, agonist: Imiquimod (TLR7) […].
[8] abbreviates: library stock concentration (final ~1000-fold dilution): 10 mM, cytotoxicity flag (confluency mask): not cytotoxic, agonist: MPLA (TLR4) […].
[9] abbreviates: library stock concentration (final ~1000-fold dilution): 10 mM, cytotoxicity flag (confluency mask): cytotoxic (confluency <70% of control), agonist: Imiquimod (TLR7) […].
The mark [10] stands for this setting: library stock concentration (final ~1000-fold dilution): 10 mM, cytotoxicity flag (confluency mask): cytotoxic (confluency <70% of control), agonist: MPLA (TLR4) […].

As to `O.O=C1C=CCC2C3CCCN4CCCC(CN12)C34` (centres undefined) (library stock concentration (final ~1000-fold dilution): 10 mM), the “NF-kB SEAP reporter activity” value in assay [1] (agonist: LPS (TLR4) 0.1 ug/mL) came to 1.41; in assay [1] (setting [4]), 0.558; in assay [1] (setting [5]) it was 0.957; in assay [1] (setting [6]) it was 1.11.

For the compound `O.O=C1C=CCC2C3CCCN4CCCC(CN12)C34` (centres undefined), the “NF-kB SEAP reporter activity” value stood at 0.531 in assay [2] (setting [7]) and 0.792 in assay [2] (setting [8]).

For the compound `C=CC1C2=CCOC(=O)C2=COC1OC1OC(CO)C(O)C(O)C1O` (centres undefined) (library stock concentration (final ~1000-fold dilution): 10 mM), the “NF-kB SEAP reporter activity” value in assay [1] (agonist: LPS (TLR4) 0.1 ug/mL) was found to be 1.09; in assay [1] (setting [4]), 0.966; in assay [1] (setting [5]), 1.14; in assay [1] (setting [6]), 1.01.

Turning to `C=CC1C2=CCOC(=O)C2=COC1OC1OC(CO)C(O)C(O)C1O` (centres undefined), the “NF-kB SEAP reporter activity” value in assay [2] (setting [7]) was 0.921; in assay [2] (setting [8]), 1.1.

For `CCCCC(O)(Cn1cncn1)c1ccc(Cl)cc1Cl` (centres undefined) (library stock concentration (final ~1000-fold dilution): 10 mM), the “NF-kB SEAP reporter activity” value is 0.866 in assay [3] (agonist: LPS (TLR4) 0.1 ug/mL), 0.962 in assay [3] (setting [4]), 0.826 in assay [3] (setting [5]) and 0.963 in assay [3] (setting [6]).

For the compound `CCCCC(O)(Cn1cncn1)c1ccc(Cl)cc1Cl` (centres undefined), the “NF-kB SEAP reporter activity” value stood at 1.19 in assay [2] (setting [9]) and 1.1 in assay [2] (setting [10]).

Turning to `COC1=C[C@@H]2[C@@H]3Cc4ccc(OC)c(O)c4[C@]2(CCN3C)CC1=O` (library stock concentration (final ~1000-fold dilution): 10 mM), the “NF-kB SEAP reporter activity” value in assay [1] (agonist: LPS (TLR4) 0.1 ug/mL) came to 1.21; in assay [1] (setting [4]) it was 1.01; in assay [1] (setting [5]), 1.13; in assay [1] (setting [6]), 1.17.

Consider `COC1=C[C@@H]2[C@@H]3Cc4ccc(OC)c(O)c4[C@]2(CCN3C)CC1=O`, for which the “NF-kB SEAP reporter activity” value in assay [2] (setting [7]) was found to be 0.953; in assay [2] (setting [8]), 0.965.

Regarding `COc1ccc(N(C(=O)Oc2c(C)cccc2C)c2ccnc(Nc3ccc(N4CCN(C)CC4)cc3)n2)c(OC)c1` (library stock concentration (final ~1000-fold dilution): 10 mM), the “NF-kB SEAP reporter activity” value in assay [1] (agonist: LPS (TLR4) 0.1 ug/mL) amounted to 1.48; in assay [1] (setting [4]), 1.79; in assay [1] (setting [5]), 1.13; in assay [1] (setting [6]) it was 1.85.

Take `COc1ccc(N(C(=O)Oc2c(C)cccc2C)c2ccnc(Nc3ccc(N4CCN(C)CC4)cc3)n2)c(OC)c1`: the “NF-kB SEAP reporter activity” value in assay [2] (setting [7]) and in assay [2] (setting [8]) was 1.45 throughout.

Take `CC12NC(Cc3ccccc31)c1ccccc12.O=C(O)/C=C\C(=O)O` (centres undefined): the “NF-kB SEAP reporter activity” value in assay [2] (setting [7]) was 1.16; in assay [2] (setting [8]), 1.1.

With `CC12NC(Cc3ccccc31)c1ccccc12.O=C(O)/C=C\C(=O)O` (centres undefined) (library stock concentration (final ~1000-fold dilution): 10 mM), the “NF-kB SEAP reporter activity” value in assay [1] (agonist: LPS (TLR4) 0.1 ug/mL) was 1.25; in assay [1] (setting [4]), 0.851; in assay [1] (setting [5]) it was 1.13; in assay [1] (setting [6]), 1.15.

Regarding `ClC(Cl)=C(c1ccc(Cl)cc1)c1ccc(Cl)cc1`, the “NF-kB SEAP reporter activity” value in assay [2] (setting [8]) is 1.76.

In the case of `ClC(Cl)=C(c1ccc(Cl)cc1)c1ccc(Cl)cc1` (library stock concentration (final ~1000-fold dilution): 10 mM), the “NF-kB SEAP reporter activity” value in assay [1] (agonist: LPS (TLR4) 0.1 ug/mL) came to 1.44; in assay [1] (setting [4]), 0.68; in assay [1] (setting [5]), 0.79; in assay [1] (setting [6]) it was 1.14.

For `CC1(C)C(=O)N(c2ccc(C#N)c(C(F)(F)F)c2)C(=O)N1CCCCO` (library stock concentration (final ~1000-fold dilution): 10 mM), the “NF-kB SEAP reporter activity” value in assay [1] (agonist: LPS (TLR4) 0.1 ug/mL) turned out to be 0.98; in assay [1] (setting [4]) it was 0.986; in assay [1] (setting [5]) it was 0.99; in assay [1] (setting [6]), 1.1.

As for `CC1(C)C(=O)N(c2ccc(C#N)c(C(F)(F)F)c2)C(=O)N1CCCCO`, the “NF-kB SEAP reporter activity” value in assay [2] (setting [8]) came out at 1.08.

For `Cl.O=C1CCC2(O)C3Cc4ccc(O)c5c4C2(CCN3CC2CC2)C1O5` (centres undefined), the “NF-kB SEAP reporter activity” value was 0.985 in assay [2] (setting [7]) and 0.987 in assay [2] (setting [8]).

Regarding `Cl.O=C1CCC2(O)C3Cc4ccc(O)c5c4C2(CCN3CC2CC2)C1O5` (centres undefined) (library stock concentration (final ~1000-fold dilution): 10 mM), the “NF-kB SEAP reporter activity” value in assay [1] (agonist: LPS (TLR4) 0.1 ug/mL) is 0.955; in assay [1] (setting [4]), 0.919; in assay [1] (setting [5]), 0.739; in assay [1] (setting [6]), 0.982.

For `CNC1C(O)C(OC2C(N)CC(N)C(OC3OC(C(C)O)C(O)C(O)C3N)C2O)OCC1(C)O.O=S(=O)(O)O.O=S(=O)(O)O` (centres undefined), the “NF-kB SEAP reporter activity” value in assay [2] (library stock concentration (final ~1000-fold dilution): 10 mM water, cytotoxicity flag (confluency mask): not cytotoxic, agonist: Imiquimod (TLR7) […]) is 0.947; in assay [2] (library stock concentration (final ~1000-fold dilution): 10 mM water, cytotoxicity flag (confluency mask): not cytotoxic, agonist: MPLA (TLR4) […]) it was 1.07.

On to `CNC1C(O)C(OC2C(N)CC(N)C(OC3OC(C(C)O)C(O)C(O)C3N)C2O)OCC1(C)O.O=S(=O)(O)O.O=S(=O)(O)O` (centres undefined) (library stock concentration (final ~1000-fold dilution): 10 mM water), for which the “NF-kB SEAP reporter activity” value in assay [1] (agonist: LPS (TLR4) 0.1 ug/mL) is 1.15; in assay [1] (setting [4]), 1.26; in assay [1] (setting [5]), 1.15; in assay [1] (setting [6]) it was 1.12.

Consider `O=C(OC1C[N+]2(CCCOc3ccccc3)CCC1CC2)C(O)(c1cccs1)c1cccs1` (centres undefined), for which the “NF-kB SEAP reporter activity” value worked out at 0.905 in assay [2] (setting [7]) and 1.06 in assay [2] (setting [8]).

Consider `O=C(OC1C[N+]2(CCCOc3ccccc3)CCC1CC2)C(O)(c1cccs1)c1cccs1` (centres undefined) (library stock concentration (final ~1000-fold dilution): 10 mM), for which the “NF-kB SEAP reporter activity” value in assay [1] (agonist: LPS (TLR4) 0.1 ug/mL) was determined as 0.989; in assay [1] (setting [4]), 1.04; in assay [1] (setting [5]) it was 1.1; in assay [1] (setting [6]), 1.04.

As to `CC(C)[C@]12O[C@H]1[C@@H]1O[C@]13[C@]1(O[C@H]1C[C@H]1C4=C(CC[C@@]13C)C(=O)OC4)[C@@H]2O` (library stock concentration (final ~1000-fold dilution): 10 mM), the “NF-kB SEAP reporter activity” value in assay [3] (agonist: LPS (TLR4) 0.1 ug/mL) amounted to 0.276; in assay [3] (setting [4]), 0.21; in assay [3] (setting [5]), 0.0742; in assay [3] (setting [6]) it was 0.169.

Take `CC(C)[C@]12O[C@H]1[C@@H]1O[C@]13[C@]1(O[C@H]1C[C@H]1C4=C(CC[C@@]13C)C(=O)OC4)[C@@H]2O`: the results for the “NF-kB SEAP reporter activity” value in assay [2] (setting [9]) and in assay [2] (setting [10]) were 0.145 and 0.263, respectively.

Turning to `COc1cc2c(c(OC)c1OC)-c1ccc(OC)c(=O)cc1C(NC(C)=O)CC2` (centres undefined) (library stock concentration (final ~1000-fold dilution): 10 mM), the “NF-kB SEAP reporter activity” value in assay [1] (agonist: LPS (TLR4) 0.1 ug/mL) came to 4.93; in assay [1] (setting [4]) it was 3.47; in assay [1] (setting [5]), 2.44; in assay [1] (setting [6]), 2.52.

Turning to `COc1cc2c(c(OC)c1OC)-c1ccc(OC)c(=O)cc1C(NC(C)=O)CC2` (centres undefined), the “NF-kB SEAP reporter activity” value in assay [2] (setting [7]) was 2.62; in assay [2] (setting [8]), 1.98.

With `CC(C)(C)c1cc(C=C(C#N)C#N)cc(Br)c1O`, the “NF-kB SEAP reporter activity” value in assay [2] (setting [9]) is 2.04; in assay [2] (setting [10]) it was 2.25.

For `CC(C)(C)c1cc(C=C(C#N)C#N)cc(Br)c1O` (library stock concentration (final ~1000-fold dilution): 10 mM), the “NF-kB SEAP reporter activity” value in assay [3] (agonist: LPS (TLR4) 0.1 ug/mL) amounted to 2.48; in assay [3] (setting [4]), 1.29; in assay [3] (setting [5]), 0.571; in assay [3] (setting [6]), 0.667.

Consider `O=C(c1ccccc1O)c1[nH]c(Cl)c(Cl)c1-n1c(C(=O)c2ccccc2O)cc(Cl)c1Cl`, for which the “NF-kB SEAP reporter activity” value in assay [2] (setting [9]) was 0.224; in assay [2] (setting [10]), 0.3.

Consider `O=C(c1ccccc1O)c1[nH]c(Cl)c(Cl)c1-n1c(C(=O)c2ccccc2O)cc(Cl)c1Cl` (library stock concentration (final ~1000-fold dilution): 10 mM), for which the “NF-kB SEAP reporter activity” value in assay [3] (agonist: LPS (TLR4) 0.1 ug/mL) amounted to 0.156; in assay [3] (setting [4]), 0.169; in assay [3] (setting [5]), 0.0629; in assay [3] (setting [6]), 0.113.

Turning to `CC(C)=CCCC1(C)C=Cc2c(O)c3c(c(CC=C(C)C)c2O1)OC12C(=CC4CC1C(C)(C)OC2(C/C=C(/C)C(=O)O)C4=O)C3=O` (centres undefined), the “NF-kB SEAP reporter activity” value in assay [2] (setting [7]) is 0.882; in assay [2] (setting [8]) it was 1.02.

For the compound `CC(C)=CCCC1(C)C=Cc2c(O)c3c(c(CC=C(C)C)c2O1)OC12C(=CC4CC1C(C)(C)OC2(C/C=C(/C)C(=O)O)C4=O)C3=O` (centres undefined) (library stock concentration (final ~1000-fold dilution): 10 mM), the “NF-kB SEAP reporter activity” value was determined as 0.196 in assay [1] (agonist: LPS (TLR4) 0.1 ug/mL), 0.942 in assay [1] (setting [4]), 0.45 in assay [1] (setting [5]) and 0.493 in assay [1] (setting [6]).
